# Experimental data as given in patent US8067379B2, “Sulfur compounds as inhibitors of hepatitis C virus NS3 serine protease” (Schering Corporation, priority 2004, dated 2011).
# Molecular target: Recombinant heterodimeric HCV NS3/NS4A protease (strain 1a) (Hepatitis C virus genotype 1a, UniProt P27958)
# Assay: Spectrophotometric assay for HCV serine protease inhibitory activity (chromogenic ester substrates)
# Assay type: biochemical
# Settings: Table 3A; class symbols; read-out: Ki* Range
row,Compound,Ki [nM]
1,CC(C)C[C@](C)(CS(=O)(=O)C(C)(C)C)NC(=O)N[C@H](C(=O)N1C[C@H]2[C@@H]([C@H]1C(=O)NC(CCC1CC1)C(=O)C(=O)NC1CC1)C2(C)C)C1(C)CCCCC1 (stereo partly drawn) [Compound 570],< 75
2,C=CCNC(=O)C(=O)C(CCC1CC1)NC(=O)[C@@H]1[C@@H]2[C@H](CN1C(=O)[C@@H](NC(=O)N[C@](C)(CC(C)C)CS(=O)(=O)C(C)(C)C)C1(C)CCCCC1)C2(C)C (stereo partly drawn) [Compound 571],< 75
3,CC(C)CC(NC(=O)[C@@H]1[C@@H]2[C@H](CN1C(=O)[C@@H](NC(=O)NC1(CS(=O)(=O)C(C)(C)C)CCCCC1)C1(C)CCCCC1)C2(C)C)C(=O)C(=O)NC1CC1 (stereo partly drawn) [Compound 572],75 to 250
4,CC(C)CC(NC(=O)[C@@H]1[C@@H]2[C@H](CN1C(=O)[C@@H](NC(=O)NC1(CS(=O)(=O)C(C)(C)C)CCCCC1)C(C)(C)C)C2(C)C)C(=O)C(=O)NC1CC1 (stereo partly drawn) [Compound 573],75 to 250
5,CC(C)CC(NC(=O)[C@@H]1[C@@H]2[C@H](CN1C(=O)[C@@H](NC(=O)NC1(CS(=O)(=O)C(C)(C)C)CCCCC1)C1CCCCC1)C2(C)C)C(=O)C(=O)NC1CC1 (stereo partly drawn) [Compound 574],75 to 250
6,C=CCNC(=O)C(=O)C(CC(C)C)NC(=O)[C@@H]1[C@@H]2[C@H](CN1C(=O)[C@@H](NC(=O)NC1(CS(=O)(=O)C(C)(C)C)CCCCC1)C1(C)CCCCC1)C2(C)C (stereo partly drawn) [Compound 575],75 to 250
7,C=CCNC(=O)C(=O)C(CC(C)C)NC(=O)[C@@H]1[C@@H]2[C@H](CN1C(=O)[C@@H](NC(=O)NC1(CS(=O)(=O)C(C)(C)C)CCCCC1)C(C)(C)C)C2(C)C (stereo partly drawn) [Compound 576],75 to 250
8,C=CCNC(=O)C(=O)C(CC(C)C)NC(=O)[C@@H]1[C@@H]2[C@H](CN1C(=O)[C@@H](NC(=O)NC1(CS(=O)(=O)C(C)(C)C)CCCCC1)C1CCCCC1)C2(C)C (stereo partly drawn) [Compound 577],> 250
9,CC(C)CCC(NC(=O)[C@@H]1[C@@H]2[C@H](CN1C(=O)[C@@H](NC(=O)NC1(CS(=O)(=O)C(C)(C)C)CCCCC1)C1(C)CCCCC1)C2(C)C)C(=O)C(=O)NC1CC1 (stereo partly drawn) [Compound 578],75 to 250
10,CC(C)CCC(NC(=O)[C@@H]1[C@@H]2[C@H](CN1C(=O)[C@@H](NC(=O)NC1(CS(=O)(=O)C(C)(C)C)CCCCC1)C1CCCCC1)C2(C)C)C(=O)C(=O)NC1CC1 (stereo partly drawn) [Compound 579],< 75
11,C=CCNC(=O)C(=O)C(CCC(C)C)NC(=O)[C@@H]1[C@@H]2[C@H](CN1C(=O)[C@@H](NC(=O)NC1(CS(=O)(=O)C(C)(C)C)CCCCC1)C1(C)CCCCC1)C2(C)C (stereo partly drawn) [Compound 580],< 75
12,C=CCNC(=O)C(=O)C(CCC(C)C)NC(=O)[C@@H]1[C@@H]2[C@H](CN1C(=O)[C@@H](NC(=O)NC1(CS(=O)(=O)C(C)(C)C)CCCCC1)C(C)(C)C)C2(C)C (stereo partly drawn) [Compound 581],< 75
13,C=CCNC(=O)C(=O)C(CCC(C)C)NC(=O)[C@@H]1[C@@H]2[C@H](CN1C(=O)[C@@H](NC(=O)NC1(CS(=O)(=O)C(C)(C)C)CCCCC1)C1CCCCC1)C2(C)C (stereo partly drawn) [Compound 582],< 75
14,CC(C)CCC(NC(=O)[C@@H]1[C@@H]2[C@H](CN1C(=O)[C@@H](NC(=O)NC1(CS(=O)(=O)C(C)(C)C)CCCCC1)C(C)(C)C)C2(C)C)C(=O)C(=O)NC1CC1 (stereo partly drawn) [Compound 583],< 75
15,CCCCC(NC(=O)[C@@H]1[C@@H]2[C@H](CN1C(=O)[C@@H](NC(=O)NC1(CS(=O)(=O)C(C)(C)C)CCCCC1)C(C)(C)C)C2(Cl)Cl)C(=O)C(=O)NC1CC1 (stereo partly drawn) [Compound 584],< 75
16,CCCC(NC(=O)[C@@H]1[C@@H]2[C@H](CN1C(=O)[C@@H](NC(=O)NC1(CS(=O)(=O)C(C)(C)C)CCCCC1)C(C)(C)C)C2(Cl)Cl)C(=O)C(=O)NC1CC1 (stereo partly drawn) [Compound 585],< 75
17,CC1([C@H](NC(=O)NC2(CS(=O)(=O)C(C)(C)C)CCCCC2)C(=O)N2C[C@H]3[C@@H]([C@H]2C(=O)NC(CC2CC2)C(=O)C(=O)NCc2nccs2)C3(C)C)CCCCC1 (stereo partly drawn) [Compound 586],< 75

row,Compound,Ki [nM]
1,C=CCNC(=O)C(=O)C(CCC)NC(=O)[C@@H]1[C@@H]2[C@H](CN1C(=O)[C@@H](NC(=O)NC1(CS(=O)(=O)C(C)(C)C)CCCCC1)C(C)(C)C)C2(Cl)Cl (stereo partly drawn) [Compound 589],< 75
2,C=CCNC(=O)C(=O)C(CC1CCC1)NC(=O)[C@@H]1[C@@H]2[C@H](CN1C(=O)[C@@H](NC(=O)NC1(CS(=O)(=O)C(C)(C)C)CCCCC1)C(C)(C)C)C2(Cl)Cl (stereo partly drawn) [Compound 590],< 75
3,C=CCNC(=O)C(=O)C(CC1CC1)NC(=O)[C@@H]1[C@@H]2[C@H](CN1C(=O)[C@@H](NC(=O)NC1(CS(=O)(=O)C(C)(C)C)CC3CCC1C3)C1(C)CCCCC1)C2(C)C (stereo partly drawn) [Compound 591],< 75
4,C=CCNC(=O)C(=O)C(CC1CC1)NC(=O)[C@@H]1[C@@H]2[C@H](CN1C(=O)[C@@H](NC(=O)NC1(CS(=O)(=O)C(C)(C)C)CC3CCC1C3)C(C)(C)C)C2(C)C (stereo partly drawn) [Compound 592],< 75
5,CCCNC(=O)C(=O)C(CCC)NC(=O)[C@@H]1[C@@H]2[C@H](CN1C(=O)[C@@H](NC(=O)NC1(CS(=O)(=O)C(C)(C)C)CCCCC1)C(C)(C)C)C2(Cl)Cl (stereo partly drawn) [Compound 593],< 75
6,CC(C)(C)[C@H](NC(=O)NC1(CS(=O)(=O)C(C)(C)C)CCCCC1)C(=O)N1C[C@H]2[C@@H]([C@H]1C(=O)NC(CC1CC1)C(=O)C(=O)NC1CC1)C2(Cl)Cl (stereo partly drawn) [Compound 594],< 75
7,CCCCC(NC(=O)[C@@H]1[C@@H]2[C@H](CN1C(=O)[C@@H](NC(=O)NC1(CS(=O)(=O)C(C)(C)C)CCCCC1)C(C)(C)C)C2(Cl)Cl)C(=O)C(=O)NCCC (stereo partly drawn) [Compound 595],< 75
8,CC1([C@H](NC(=O)NC2(CS(=O)(=O)C(C)(C)C)CCCCC2)C(=O)N2C[C@H]3[C@@H]([C@H]2C(=O)NC(CC2CC2)C(=O)C(=O)NCc2cccs2)C3(C)C)CCCCC1 (stereo partly drawn) [Compound 596],< 75
9,C=CCNC(=O)C(=O)C(CC1CC1)NC(=O)[C@@H]1[C@@H]2[C@H](CN1C(=O)[C@@H](NC(=O)NC1(C3CCCS3(=O)=O)CCCCC1)C1(C)CCCCC1)C2(C)C (stereo partly drawn) [Compound 597],< 75
10,CC1([C@H](NC(=O)NC2(CS(=O)(=O)C(C)(C)C)CCCCC2)C(=O)N2C[C@H]3[C@@H]([C@H]2C(=O)NC(CCC2CC2)C(=O)C(=O)NC2CC2)C3(C)C)CCCC1 (stereo partly drawn) [Compound 598],< 75
11,CCCC(NC(=O)[C@@H]1[C@@H]2[C@H](CN1C(=O)[C@@H](NC(=O)NC1(CS(=O)(=O)C(C)(C)C)CCCCC1)C1(C)CCCCC1)C2(C)C)C(=O)C(=O)NCc1nccs1 (stereo partly drawn) [Compound 599],< 75
12,CCCCC(NC(=O)[C@@H]1[C@@H]2[C@H](CN1C(=O)[C@@H](NC(=O)NC1(CS(=O)(=O)C(C)(C)C)CCCCC1)C1(C)CCCCC1)C2(C)C)C(=O)C(=O)NCc1cccs1 (stereo partly drawn) [Compound 600],< 75
13,CCCCC(NC(=O)[C@@H]1[C@@H]2[C@H](CN1C(=O)[C@@H](NC(=O)NC1(CS(=O)(=O)C(C)(C)C)CCCCC1)C1(C)CCCCC1)C2(C)C)C(=O)C(=O)NCc1nccs1 (stereo partly drawn) [Compound 601],< 75
14,CC1(C)[C@@H]2[C@@H](C(=O)NC(CCCF)C(=O)C(=O)NC3CC3)N(C(=O)[C@@H](NC(=O)NC3(CS(=O)(=O)C(C)(C)C)CCCCC3)C3CCCCC3)C[C@@H]21 (stereo partly drawn) [Compound 602],< 75
15,CC(C)(C)[C@H](NC(=O)NC1(CS(=O)(=O)C(C)(C)C)CCCCC1)C(=O)N1C[C@H]2[C@@H]([C@H]1C(=O)NC(CCCF)C(=O)C(=O)NC1CC1)C2(C)C (stereo partly drawn) [Compound 603],< 75
16,CC1([C@H](NC(=O)NC2(CS(=O)(=O)C(C)(C)C)CCCCC2)C(=O)N2C[C@H]3[C@@H]([C@H]2C(=O)NC(CCC2CC2)C(=O)C(=O)NCc2nccs2)C3(C)C)CCCCC1 (stereo partly drawn) [Compound 604],< 75
